Measured values reported in PubChem BioAssay (NCI).
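Cells were grown in 96-well plates and exposed to each compound for 48 hours at five concentrations; endpoints were interpolated linearly between bracketing concentrations, or set to the highest concentration if not reached. GI50 = concentration required for 50% inhibition of growth. TGI denotes the concentration required for complete inhibition of growth.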

System: NCI-H322M lung
Assay: NCI-60 cell line screen, 48 h

| Structure (SMILES) | GI50 [µM] | TGI [µM] |
| --- | --- | --- |
| CC[C@]12C=CCN3CC[C@@]4(c5cc(NC(=O)COc6cc(O)c7c(=O)cc(-c8ccccc8)oc7c6)c(OC)cc5N(C)[C@H]4[C@@](O)(C(=O)OC)[C@@H]1OC(C)=O)[C@@H]32 | 1.76 | 3.84 |
| Cc1ccc2c(n1)C(=O)C(Cl)=C(Nc1ccc(C#N)cc1)C2=O | 31.8 | > 100 |
| C#C[C@]1(O)CC[C@H]2[C@@H]3CC=C4c5sc(Nc6ccc(C)cn6)nc5CC[C@]4(C)[C@H]3CC[C@@]21C | 2.58 | 14.3 |
| C#CCOc1ccc(-c2csc(NC(=O)C=C)n2)cc1NS(=O)(=O)c1cccc2c(N(C)C)cccc12 | 7.12 | 19.1 |
